PubChem BioAssay AID504832 (National Center for Advancing Translational Sciences (NCATS), 2011)
Among all 310,000 compounds or so, about 18,000 (5.8%) were called active. Inconclusive means that the source gave no clear call. Such entries were picked first, then a sample of the others. The call rests on the fitted dose curve; in most records, active means well fitted inhibition curve with a large enough effect; inconclusive means small, poorly fitted or top-dose-only effect, or another doubt; inactive means no such curve, though single readings can be large or run the other way. Potencies of inconclusive entries are left out as doubtful fits.

Assay: Primary qHTS for delayed death inhibitors of the malarial parasite plastid, 48 hour incubation
Conditions: P. falciparum luciferase growth in erythrocytes; series mostly up to 28.7 µM
Outline: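 Luciferase-expressing P. falciparum in infected erythrocytes (2% hematocrit, 0.1% parasitemia final) in RPMI 1640/0.5% Albumax were exposed to compound for 48 hours at 37 C, 5% CO2; growth read as luminescence.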
Potency means the concentration at half of the fitted maximal effect; tags describe the fitted curve by direction and shape.

| Compound | Potency |
| --- | --- |
| COc1ccc(-c2cnnn2-c2ccc(NC(=O)c3ccc(S(=O)(=O)N4CCCCC4)cc3)cc2)cc1OC | active: 4.15 µM |
| COc1ccccc1N(CC(=O)Nc1cc(C)on1)S(=O)(=O)c1ccc(Cl)cc1 | inconclusive [inhibitor, single point] |
| Cn1c(=O)cc(OCC(=O)N2CCN(c3ccccc3F)CC2)c2ccccc21 | inconclusive [inhibitor, partial curve, poor fit] |
| O=C(NCCN1CCOCC1)C1CCC(CNS(=O)(=O)c2ccc(Cl)cc2)CC1 (stereo unspecified) | inactive |
| CN1C2C=C(N(CCc3c[nH]c4ccccc34)C(=O)c3ccc(Cl)cc3)CC1CC2 (stereo unspecified) | inconclusive [inhibitor, partial curve, poor fit] |
| Cc1sc(NC(=O)c2ccco2)c(CN2CCN(c3ccccn3)CC2)c1C | active: 9.28 µM |
| Cc1ccc(C(=O)NC2CCS(=O)(=O)C2)cc1S(=O)(=O)N1CCCCCC1 (stereo unspecified) | inconclusive [inhibitor, partial curve, poor fit] |
| Cc1ccc(-c2c(C(=O)N/N=C/c3ccc(C)o3)nnn2-c2nonc2N)cc1 | inconclusive [inhibitor, partial curve] |
| O=C(CCc1ccccc1)NCC1(c2ccccc2)CCCC1 | inconclusive [inhibitor, single point] |
| COc1cc2cnc(-c3ccccc3)c(-c3ccc(C(F)(F)F)cc3)c2cc1OC | inconclusive [inhibitor, partial curve, poor fit] |
| CCOC(=O)/C=C/C(=O)Nc1ccc(S(=O)(=O)N2CCc3ccccc32)cc1 | inconclusive [inhibitor, single point] |
| COc1ccc(NC(=O)CCCN2C(=O)CN(C)C2=O)c(OC)c1 | inconclusive [inhibitor, partial curve, poor fit] |
| CCc1ccc(NC(=O)N(CCCOC(C)C)C2CCN(C(C)=O)CC2)cc1 | inconclusive [inhibitor, full curve, poor fit] |
| CCOc1ccc(OCC)c(NC(=O)CN2CCN(c3ccc(C)cc3C)CC2)c1 | active: 8.28 µM |
| Cn1c2ccccc2c2c(C(=O)NCC3CCCO3)cn(C3CCCC3)c(=O)c21 (stereo unspecified) | inconclusive [inhibitor, single point] |
| COc1ccc(N2C(=O)C(CC(=O)Nc3ccc(F)cc3)N(CCc3ccc(OC)c(OC)c3)C2=O)cc1 (stereo unspecified) | inactive |
| O=C(CC1(CC2=NS(=O)(=O)c3ccccc3N2)CCCC1)NCCc1ccccc1 | inconclusive [inhibitor, single point] |
| CCOC(=O)CSCc1cn2cc(Cl)ccc2n1 | inactive |
| Cc1nc2ccccn2c1C(=O)NCc1cccnc1 | inactive |
| CCCCc1ccc(N=N/C(C(=O)Nc2ccc(NC(C)=O)cc2OC)=C(/C)O)cc1 | inconclusive [inhibitor, full curve] |
| CCn1c(CSc2nc3ccccc3s2)nnc1SCC(=O)c1ccc(O)c(O)c1 | inconclusive [inhibitor, single point] |
| CCOc1ccc(CCNC(=O)COC(=O)/C=C/c2ccc(OC(F)F)c(OC)c2)cc1OCC | inconclusive [inhibitor, single point] |

| Compound | Potency |
| --- | --- |
| CCn1cc(Cl)c(C(=O)N2N=C3/C(=C/c4cccs4)CCCC3C2c2cccs2)n1 (stereo unspecified) | inactive |
| CCOC(=O)C1=C(N)n2c(s/c(=C\c3ccco3)c2=O)=C(C(=O)OCC)C1c1ccco1 (stereo unspecified) | inconclusive [inhibitor, partial curve, poor fit] |
| COc1ccc(S(=O)(=O)NC2CC2)cc1Cl | inactive |
| CN(c1ccccc1)S(=O)(=O)c1cccc(NC(=O)COc2ccccc2)c1 | inconclusive [inhibitor, single point] |
| CCN(CC)CCn1c2c(c(SCC(=O)Nc3ccc(C(C)C)cc3)nc1=O)CCC2 | inconclusive [inhibitor, partial curve] |
| COc1cc(/C=N/Nc2ncc(C(F)(F)F)cc2Cl)cc(OC)c1OC | active: 4.65 µM |
| CC(=O)NC(CC(=O)N(Cc1ccccc1)c1cccc(C)c1)c1ccccc1 (stereo unspecified) | inconclusive [inhibitor, partial curve, poor fit] |
| CCOC(=O)C1(C)C=C(Nc2ccc(O)cc2)C(=O)N1c1ccc(O)cc1 (stereo unspecified) | active: 11.7 µM |
| COc1ccccc1N(CC(O)CN(c1ccccc1)S(C)(=O)=O)S(=O)(=O)c1ccccc1 (stereo unspecified) | inconclusive [inhibitor, partial curve] |
| COc1ccc(NC(=S)Nc2cccc(Cl)c2)cc1OC | inactive |
| Cc1[nH]c2ccccc2c1CN1CCC(CO)(Cc2ccccc2)CC1 | inconclusive [inhibitor, partial curve] |
| Cc1ccc(NC(=O)CN(C)C(=O)Cn2c(=O)oc3ccccc32)cc1 | inactive |
| O=c1cc(CNc2cc(Cl)ccc2Cl)nc2sccn12 | inactive |
| COc1ccc(Cn2c(C)nc3ccc([N+](=O)[O-])cc3c2=O)cc1 | inactive |
| CCN(CC)S(=O)(=O)c1cccc(C(=O)OCC(=O)C23CC4CC(CC(C4)C2)C3)c1 | inconclusive [inhibitor, single point] |
| Cc1[nH]n(-c2ccccc2)c(=O)c1N=Nc1cccc(C(=O)O)c1 | inactive |
| CN1CCOC(=O)/C1=N/Nc1cc(Cl)ccc1Cl | inactive |
| COC(=O)c1ccc(CSc2nc3c(c(=O)n2-c2ccccc2)SCC3)o1 | active: 10.4 µM |
| Cc1c(/C=N/NC(=O)c2cc(=O)[nH]c(=O)[nH]2)c2ccccn2c1C(=O)c1ccccc1 | active: 3.29 µM |
| Cc1nn(C2CCOC(C)(C)C2)c2c1C(c1ccc(OC(C)C)cc1)SCC(=O)N2 (stereo unspecified) | inconclusive [inhibitor, partial curve, poor fit] |
| COc1ccc(CCN(Cc2ccccn2)C(=S)Nc2cccc(C)c2)cc1OC | active: 11.7 µM |
| CCOC(=O)c1c(C)nc2c(c1-c1ccccc1)C(=O)CC(C)(C)C2 | inconclusive [inhibitor, partial curve] |

| Compound | Potency |
| --- | --- |
| CN(C(=O)c1ccc(NC(=O)Cc2cccc(NC(=O)C3CCCN(C(=O)C4CC4)C3)c2)cc1)C1CCCC1 (stereo unspecified) | active: 14.7 µM |
| NC(=O)C1CCCN(CC(=O)Nc2ccccc2C(=O)NC2CC2)C1 (stereo unspecified) | inactive |
| COc1ccccc1/C=N/Nc1cc(C)nc2ccc(C)cc12 | inactive |
| COc1ccccc1Nc1nc(-c2cccc([N+](=O)[O-])c2)nc2ccccc12 | inconclusive [inhibitor, single point] |
| CC(=O)c1cccc(N(CC(=O)NC2CCCCC2)C(=O)CCC(=O)Nc2nc(C)cs2)c1 | inconclusive [inhibitor, partial curve] |
| O=C(CCNC(=O)c1ccc(Br)cc1)Nc1ccccc1N1CCCCC1 | inconclusive [inhibitor, partial curve, poor fit] |
| COc1ccc(CN2C(=O)c3ccccc3C2C(=O)NC2CCCCCC2)c(OC)c1 (stereo unspecified) | inconclusive [inhibitor, partial curve] |
| COc1cccc(N2CCN(c3ccc4nnc(CCC(=O)Nc5ccc(C)cn5)n4n3)CC2)c1 | inconclusive [inhibitor, single point] |
| O=C(N/N=C/c1ccc(N2CCOCC2)s1)c1ccc(NS(=O)(=O)c2cccs2)cc1 | inconclusive [inhibitor, partial curve, poor fit] |
| Cc1c(/C=N/NC(=O)C2(O)c3ccccc3-c3ccccc32)cnn1C | inconclusive [inhibitor, partial curve, poor fit] |
| O=C(N/N=C\c1cc([N+](=O)[O-])ccc1N1CCCC1)c1ccccn1 | inconclusive [inhibitor, partial curve] |
| COc1ccc(OC)c(-c2nc(CN3CCCCC3c3cccnc3)c(C)o2)c1 (stereo unspecified) | inconclusive [inhibitor, partial curve] |
| CC(=O)Oc1ccc(C(=O)NCCc2ccccc2)cc1 | inactive |
| COC(=O)C1=C(C(=O)OC)SC2(S1)C(C(=O)OC)=C(C(=O)OC)SC1=C2c2cc(C)ccc2NC1(C)C | inconclusive [inhibitor, single point] |
| Cc1cccc(-n2c(SCc3ccc([N+](=O)[O-])cc3)nnc2-c2c[nH]c3ccccc23)c1 | inconclusive [inhibitor, full curve] |
| O=C(NCc1nnc(SCC(=O)N2CCCc3ccccc32)n1-c1ccccc1)c1cccc2ccccc12 | inconclusive [inhibitor, partial curve] |
| CNC(=S)N/N=C/c1cc(Br)c(OCc2ccncc2)c(OC)c1 | inconclusive [inhibitor, single point] |
| O=C(Cc1ccccc1)NNC(=O)c1ccc(Br)o1 | inactive |
| O=C(/C=C/c1cccc(Br)c1)NC1CCN(Cc2ccccc2)CC1 | inconclusive [inhibitor, single point] |
| Cc1ccc(-c2nnn(CC(=O)N(c3ccccc3F)C(CC(C)C)C(=O)NCC3CCCO3)n2)cc1 (stereo unspecified) | inconclusive [inhibitor, single point] |
| Cc1cccnc1NC(=O)c1ccc(Br)o1 | inconclusive [inhibitor, partial curve, poor fit] |
| CN1c2ccccc2C(=O)NC1c1ccc([N+](=O)[O-])s1 (stereo unspecified) | inconclusive [inhibitor, partial curve] |
